The values below come from ChEMBL document CHEMBL1201862, “PubChem BioAssay data set” (2004).

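Assay format: 96-well plates, 48-hour exposure. GI50: concentration for 50% inhibition of growth.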 Activity calls are given as the source filed them. Cut-off read from the data, not from the text of the source: active = GI50 up to about 1.1 µM and inactive = higher.

The test system of this experiment is NCI-H322M. Briefly: NCI tumour cell line growth inhibition, 48 h.
On to `CC(=O)Nc1ccc2nc(-c3cccc(F)c3)cc(O)c2c1`, for which the GI50 was inactive: 12.2 µM.

`CC1(C)OC(=O)C(=Cc2ccc(O)cc2)C(=O)O1`: the GI50 is inactive: > 100 µM.

Take `CCCCCCc1cc2cc(C(=O)NCc3ccccc3)c(=N)oc2cc1O`: the GI50 is inactive: > 100 µM.

For `CC(C)(C)CC(N)=O`, the GI50 was inactive: > 100 µM.

With `O=C(O)CCn1cnc2c(S)ncnc21`, the GI50 was inactive: > 100 µM.

As to `Cn1c(=O)c2nc(COCc3nc4c(=O)n(C)c(=O)n(C)c4[nH]3)[nH]c2n(C)c1=O`, the GI50 is inactive: > 100 µM.

With `O=C1NC(=S)NC(=O)C1=Cc1ccc(-c2ccccc2)cc1`, the GI50 is inactive: > 100 µM.

For the compound `COc1ccc(-n2sc3ncc(C)cc3c2=O)cc1`, the GI50 is inactive: > 100 µM.

For `C1CSCCSCSCCS1`, the GI50 was inactive: > 100 µM.

With `CC1=C(C(=O)Nc2ccccc2C)C(c2ccc(Cl)c(Cl)c2)C(C(=O)Nc2ccccc2C)=C(C)N1`, the GI50 is inactive: 43 µM.

On to `CCCCN1C(=O)CS/C1=N/Nc1nc2c([nH]1)c(=O)n(C)c(=O)n2C`, for which the GI50 is inactive: 5.09 µM.

As to `COC(=O)C1(C)OC(C)=NC1(C(=O)OC)C(=O)OC` (stereo not given), the GI50 is inactive: > 100 µM.

Regarding `CO/N=C\c1ccc2c(c1)Sc1ccccc1O2`, the GI50 is inactive: > 100 µM.

On to `O=C(O)c1cccc(Nc2c(C(=O)O)cccc2[N+](=O)[O-])c1`, for which the GI50 was inactive: > 100 µM.

As to `N#Cc1cnsc1`, the GI50 is inactive: > 100 µM.

Regarding `O=C(NC12CC3CC(CC(C3)C1)C2)n1cnc2cncnc21`, the GI50 is inactive: 40.7 µM.

As to `NC(=O)CC(/N=C1\C(=O)OC(C(O)CO)\C1=N/C(CC(N)=O)C(=O)O)C(=O)O` (stereo not given), the GI50 is inactive: > 100 µM.

For the compound `CN(C)CCCNC(=O)c1cc2/c(=C\c3ccc(N(C)C)cc3)c3ccccc3n2[n+]1C`, the GI50 is inactive: 25.4 µM.

Regarding `COC(=O)c1c2c(cc3c1CC1(Cc4cc5c(cc4C1)CCCC5)C3)CCCC2`, the GI50 is inactive: > 100 µM.

For `Cc1cc(S(N)(=O)=O)c(S/C(=N\Nc2ccc([N+](=O)[O-])cc2)c2ccc(Cl)cc2)cc1Cl`, the GI50 was inactive: 1.77 µM.

As to `O=C1CSC(c2ccccc2[N+](=O)[O-])N1c1ccc(-n2c(-c3ccccc3)nc3ccccc3c2=O)cc1` (stereo not given), the GI50 is inactive: 89.9 µM.

Turning to `O=C(NS(=O)(=O)OCC(Cl)(Cl)Cl)SCCC(F)(F)C(F)(F)C(F)(F)C(F)(F)C(F)(F)C(F)(F)F`, the GI50 is inactive: 20.1 µM.

As for `COc1cc(C(C)c2cc3c(cc2OCCOCCOc2cc4c(cc2C(C)c2cc(OC)c(OC)c(OC)c2)OCO4)OCO3)cc(OC)c1OC` (stereo not given), the GI50 is inactive: > 10 µM.

With `CCOC(=O)c1csc(NC(=O)CCN2CCCC2)n1`, the GI50 is inactive: > 100 µM.

On to `O=c1c(Cl)c(Cl)c(=O)c2sc3cc(Cl)ccc3[nH]c1=2`, for which the GI50 is inactive: 94.2 µM.

As for `CCOC(=O)/C(=C\c1c[nH]c2ccccc12)P(=O)(OCC)OCC`, the GI50 is inactive: 39.1 µM.

As to `Cc1ccc(Nc2nc(=O)c3c4ccccc4n(C(=O)OC(C)(C)C)c3s2)cc1`, the GI50 was inactive: 30.7 µM.

In the case of `CC(=O)N1c2ccccc2C23CCN(C)CC4C(C)OCC(C4CC2=O)C13` (stereo not given), the GI50 was inactive: > 100 µM.

Consider `Cc1nn(C(=O)c2ccncc2)c2c1C(c1ccc([N+](=O)[O-])cc1)SC(=N)N2` (stereo not given), for which the GI50 is inactive: > 100 µM.

As for `c1ccc2c(c1)CC1c3[nH]c4ccccc4c3CCN21` (stereo not given), the GI50 was inactive: > 10 µM.

In the case of `NC(=O)CC(N)C(=O)NC(Cc1ccccc1)C(=O)NC(Cc1ccccc1)NC(=O)C(Cc1c[nH]c2ccccc12)C(=O)O` (stereo not given), the GI50 is inactive: > 100 µM.

Consider `CN(/N=C/c1ccc(Cl)c(Cl)c1)C1=NCCCCN1`, for which the GI50 is active: < 0.01 µM.

Take `O=c1[nH]c(C2CCCCC2)nc2ccc(Cl)cc12`: the GI50 is inactive: > 100 µM.

For `COC(=O)C1=CC(=O)OC1(OO)c1ccccc1` (stereo not given), the GI50 is inactive: > 100 µM.

Take `COc1cc(/C=C2\N=C(c3ccccc3)N(/N=C/c3cc4cc(C)ccc4nc3Cl)C2=O)ccc1O`: the GI50 was inactive: 69.2 µM.

With `O=C1CSC(c2cccc([N+](=O)[O-])c2)N1c1ccc(-n2c(-c3ccccc3)nc3ccccc3c2=O)cc1` (stereo not given), the GI50 is inactive: > 100 µM.

Take `Oc1cc(Cl)ncn1`: the GI50 is inactive: > 100 µM.

In the case of `O=C(Cn1c(C(=O)/C=C/c2ccc(Cl)cc2)nc2ccccc21)c1ccc(Cl)cc1`, the GI50 was inactive: 21.6 µM.

Consider `C=CCC1(CN(C)C)CC/C(=C\c2ccc3c(c2)OCO3)C1=O` (stereo not given), for which the GI50 is inactive: > 100 µM.

Consider `CN(CC(=O)O)c1ncc2c(n1)CCCC2`, for which the GI50 was inactive: > 100 µM.

For the compound `Nc1nc2c(c(-c3ccccc3Cl)n1)COC/C2=C\c1ccccc1Cl`, the GI50 was inactive: 16.6 µM.

`CCOC(=O)N1C2C=C(C)C(ON2C(=O)c2ccccc2)C2C(C)C(=O)N21` (stereo not given): the GI50 is inactive: > 100 µM.

With `COc1ccc2c(c1)[n+]([O-])c(C#N)c(N1CCN(c3ccc([N+](=O)[O-])cc3)CC1)[n+]2[O-]`, the GI50 is inactive: 25.8 µM.

Consider `O=C1c2ccccc2-c2cccc3ccc(Cc4ccc5ccccc5c4)c1c23`, for which the GI50 was inactive: > 100 µM.

In the case of `Nn1c(Nc2ccc(S(N)(=O)=O)cc2)nnc(/C=C/c2c(O)ccc3ccccc23)c1=O`, the GI50 is inactive: 15.8 µM.

`Nc1nc(NCC2(CO)CC2)cc(=O)[nH]1`: the GI50 is inactive: > 100 µM.

Turning to `O=C(/C=C1\N=C(c2ccccc2)N(c2nc3ccc(Sc4ccccc4)cc3[nH]2)C1=O)/C=C/c1ccccc1`, the GI50 is inactive: 51.1 µM.

Consider `CC1(C)OCC2OC3(c4nc(C#N)c(N)o4)OC(C)(C)OC3C2O1` (stereo not given), for which the GI50 is inactive: > 100 µM.

As for `COC(=O)CCCc1c(-c2[nH]c3ccccc3c2CCCC(=O)OC)[nH]c2ccccc12`, the GI50 is inactive: > 100 µM.

Regarding `COc1cc2c(cc1OC)[C@@H]1[C@H](C#N)C(=O)C(C)(C)N1CC2`, the GI50 was inactive: > 100 µM.

Take `COC(=O)c1ccc(NCc2cc(O)c3ccccc3c2O)cc1`: the GI50 is inactive: 11.5 µM.

Take `[N-]=[N+]=NCc1nc(N)c2c3c(sc2n1)CCCC3`: the GI50 was inactive: 10.2 µM.

For the compound `C/C(=N/NC(=O)CC(=O)N(C(=O)c1ccccc1Cl)c1ccc(C)cc1)c1cc2ccccc2oc1=O`, the GI50 was inactive: > 100 µM.

For the compound `CCOC(=O)c1cn2c(n1)sc1cc(Cl)ccc12`, the GI50 is inactive: 50.9 µM.

With `Clc1ccc2c(c1)-c1c3c(nn1-c1ccccc1)-c1ccccc1SC3O2` (stereo not given), the GI50 is inactive: > 100 µM.

As for `O=C1NC2NC3NC(=O)NC3NC2N1` (stereo not given), the GI50 was inactive: > 100 µM.

On to `CCOc1ccc(NC(=O)C(=O)CC(=O)C2=C(C)Nc3ccccc3S2)cc1`, for which the GI50 was inactive: > 50 µM.

With `O=S(=O)(CF)OCCCCOS(=O)(=O)CF`, the GI50 is inactive: > 100 µM.

Take `CN(C)CCCNC(=S)S`: the GI50 was inactive: > 100 µM.

Regarding `C[n+]1c2ccccc2c(CNC(CCC(N)=O)C(=O)O)c2ccccc21` (stereo not given), the GI50 is inactive: 7.74 µM.

Regarding `Cc1ccccc1-c1nc2c(C(=O)NCCN(C)C)cccc2[nH]1`, the GI50 was inactive: 34 µM.

Take `CC(C)[C@H]1CO[C@]2(C)[C@@H]3CN(Cc4ccccc4)C[C@@H]3C(=O)N12`: the GI50 was inactive: > 100 µM.

For the compound `CSc1c(C#N)c(N)n2c1C(=O)N(c1ccccc1)C2=S`, the GI50 was inactive: 96.6 µM.

As to `CCN1CCN(c2nc3ccccc3nc2C(=O)c2ccc(OC)c(OC)c2)CC1`, the GI50 is inactive: 19.2 µM.

For the compound `Cc1cccc(C)c1NC(=O)CCc1nnc2s/c(=C\c3ccc(N(C)C)cc3)c(=O)n12`, the GI50 was inactive: > 100 µM.

For the compound `CCOC(=O)c1cn(-c2ccc(Cl)cc2)c(=O)n2c1nc1ccccc12`, the GI50 is inactive: > 100 µM.

In the case of `CN1CCC2(CC1)SC[C@H]1C(=O)N(c3ccc(Cl)cc3)C(=O)N12`, the GI50 is inactive: > 100 µM.

Turning to `CCOC(=O)Oc1cc2c(ccn2C)c2c1c1ccccc1n2C(=O)OCC`, the GI50 is inactive: > 100 µM.

As to `CCC/C=C/C=C/C1CC(O)C(O)C(=O)C1CO` (stereo not given), the GI50 was inactive: > 100 µM.

Regarding `CC(C)(C)OC(=O)N1C(c2cccnc2)=CC[C@H]2C3CC=C(c4cccnc4)[C@@]3(C)CC[C@@H]21` (stereo not given in full), the GI50 was inactive: 13.9 µM.

As to `COc1cc(CSc2ccc(O)cc2)cc(OC)c1OC`, the GI50 was inactive: 65.6 µM.

As to `Cc1ccc(S[C@@](C=O)(NC(=O)OCc2ccccc2)C(F)(F)F)cc1`, the GI50 is inactive: 24.9 µM.

In the case of `CN1CCCNCCN(CCc2ccccn2)CCCN(C)CC1`, the GI50 was inactive: > 100 µM.

As for `CC12CC3CC(C1)CC(N=[N+]=[N-])(C3)C2`, the GI50 was inactive: > 100 µM.

For `CCCCNc1nc(C#N)c(N)s1`, the GI50 is inactive: > 100 µM.

In the case of `CC(C)(C)OC(=O)N(O)[C@@H]1C=C[C@H](n2cnc3c(N)ncnc32)C1`, the GI50 is inactive: > 100 µM.

Consider `CCC/N=C1\S/C(=C/c2ccc(OC)c(OC)c2)C(=O)N1c1ccccc1`, for which the GI50 was inactive: 27.9 µM.

On to `COc1cc(/C=C(\OC(C)=O)c2ccc3c(c2)OCO3)cc(OC)c1OC`, for which the GI50 was inactive: 22.5 µM.

For `CN/C(N)=N/N=C1/C(=O)Nc2ccccc21`, the GI50 was inactive: > 100 µM.

For the compound `OCCO[P+]1(OCCO)n2c3ccc2C(c2ccccc2)=C2C=CC(=N2)C(c2ccccc2)=c2ccc(n21)=C(c1ccccc1)C1=NC(=C3c2ccccc2)C=C1`, the GI50 is active: 0.14 µM.

In the case of `COP(=O)(O)/C=C/C(NC(=O)C(Cl)(Cl)Cl)c1ccccc1` (stereo not given), the GI50 was inactive: > 100 µM.

Regarding `C=C1C(=O)C23C(O)CC4C(C)(C)CCC(O)C4(C)C2CC(OC(C)=O)C1[C@H]3O` (stereo not given in full), the GI50 was inactive: 11.1 µM.

As to `O=C(NCCCNC(=O)c1ccc2cc(O)c(O)cc2c1)c1ccc2cc(O)c(O)cc2c1`, the GI50 is inactive: 30.2 µM.

For the compound `O=c1c(-c2ccccc2)nnc2n(Cc3ccccc3)c3ccccc3n12`, the GI50 was inactive: > 100 µM.

Take `Cc1c(C(=O)/C=C/c2ccc(Cl)cc2)[n+]([O-])c2ccccc2[n+]1[O-]`: the GI50 is inactive: 13.8 µM.
